# The list shows a part of the results.
# Assays:
# Test in all cases: glycan array binding signal (z-score within array); higher = stronger binding
# Conditions in all cases: glycan notation: IUPAC condensed, linker removed
# [1] = molecular target: GlcNAc(b1-4)GlcNAc(b1-4)GlcNAc(b1-4)GlcNAc(b1-4)GlcNAc(b1-4)GlcNAc
# In short: (§1)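 The Consortium for Functional Glycomics database supplied 3228 glycan arrays, of which those lacking an available protein sequence were dropped. The binding signal, a within-array Z-score, was averaged across arrays of the same protein sequence and across linkers. Negative scores can be read as non-binding.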
# [2] = molecular target: GlcNAc(b1-4)[GlcNAc(b1-6)]GalNAc
# In short: as §1
# [3] = molecular target: GlcNAc(b1-6)Gal(b1-4)GlcNAc
# In short: as §1
# [4] = molecular target: GlcNAc(b1-6)GalNAc
# In short: as §1
# [5] = molecular target: GlcNAc6S(b1-3)Gal(b1-4)GlcNAc
# In short: as §1
# [6] = molecular target: Kdn(a2-3)Gal(b1-3)GalNAc
# In short: as §1
# [7] = molecular target: Kdn(a2-3)Gal(b1-3)GlcNAc
# In short: as §1
# [8] = molecular target: Kdn(a2-3)Gal(b1-4)Glc
# In short: as §1
# [9] = molecular target: Kdn(a2-3)Gal(b1-4)GlcNAc
# In short: as §1
# [10] = molecular target: Kdn(a2-3)Gal(b1-4)[Fuc(a1-3)]GlcNAc
# In short: as §1
# [11] = molecular target: Kdn(a2-6)Gal(b1-4)GlcNAc
# In short: as §1
# [12] = molecular target: Man(a1-2)Man(a1-2)Man(a1-3)Man
# In short: as §1
# [13] = molecular target: Man(a1-2)Man(a1-2)Man(a1-6)[Man(a1-3)]Man
# In short: as §1
# [14] = molecular target: Man(a1-2)Man(a1-3)Man
# In short: as §1
# [15] = molecular target: Man(a1-2)Man(a1-3)[Man(a1-2)Man(a1-6)]Man
# In short: as §1
# [16] = molecular target: Man(a1-2)Man(a1-3)[Man(a1-2)Man(a1-6)]Man(a1-6)[Man(a1-2)Man(a1-2)Man(a1-3)]Man
# In short: as §1
# [17] = molecular target: Man(a1-2)Man(a1-3)[Man(a1-2)Man(a1-6)]Man(a1-6)[Man(a1-2)Man(a1-2)Man(a1-3)]Man(b1-4)GlcNAc(b1-4)GlcNAc
# In short: as §1
# [18] = molecular target: Man(a1-2)Man(a1-3)[Man(a1-6)]Man(a1-6)[Man(a1-2)Man(a1-3)]Man(b1-4)GlcNAc(b1-4)GlcNAc
# In short: as §1
# [19] = molecular target: Man(a1-2)Man(a1-6)[Man(a1-3)]Man(a1-6)[Man(a1-2)Man(a1-2)Man(a1-3)]Man
# In short: as §1
# [20] = molecular target: Man(a1-2)Man(a1-6)[Man(a1-3)]Man(a1-6)[Man(a1-2)Man(a1-2)Man(a1-3)]Man(b1-4)GlcNAc(b1-4)GlcNAc
# In short: as §1
# [21] = molecular target: Man(a1-3)[Man(a1-6)]Man
# In short: as §1
# [22] = molecular target: Man(a1-3)[Man(a1-6)]Man(a1-6)[Man(a1-2)Man(a1-3)]Man(b1-4)GlcNAc(b1-4)GlcNAc
# In short: as §1
# [23] = molecular target: Man(a1-3)[Man(a1-6)]Man(a1-6)[Man(a1-3)]Man
# In short: as §1
# [24] = molecular target: Man(a1-3)[Man(a1-6)]Man(a1-6)[Man(a1-3)]Man(b1-4)GlcNAc(b1-4)GlcNAc
# In short: as §1
# [25] = molecular target: Man(a1-3)[Man(a1-6)]Man(b1-4)GlcNAc(b1-4)GlcNAc
# In short: as §1
# [26] = molecular target: Man(a1-3)[Man(a1-6)]Man(b1-4)GlcNAc(b1-4)[Fuc(a1-6)]GlcNAc
# In short: as §1
# [27] = molecular target: Man(a1-6)Man
# In short: as §1
# [28] = molecular target: Man(b1-4)GlcNAc
# In short: as §1
# [29] = molecular target: MurNAc(b1-4)GlcNAc
# In short: as §1
# [30] = molecular target: Neu5Ac(a2-3)Gal
# In short: as §1
# [31] = molecular target: Neu5Ac(a2-3)Gal(b1-3)GalNAc
# In short: as §1
# [32] = molecular target: Neu5Ac(a2-3)Gal(b1-3)GalNAc(b1-3)Gal(a1-4)Gal(b1-4)Glc
# In short: as §1
# [33] = molecular target: Neu5Ac(a2-3)Gal(b1-3)GalNAc(b1-4)[Neu5Ac(a2-3)]Gal(b1-4)Glc
# In short: as §1
# [34] = molecular target: Neu5Ac(a2-3)Gal(b1-3)GalNAc(b1-4)[Neu5Ac(a2-8)Neu5Ac(a2-3)]Gal(b1-4)Glc
# In short: as §1
# [35] = molecular target: Neu5Ac(a2-3)Gal(b1-3)GalNAc6S
# In short: as §1
# [36] = molecular target: Neu5Ac(a2-3)Gal(b1-3)GlcNAc
# In short: as §1
# [37] = molecular target: Neu5Ac(a2-3)Gal(b1-3)GlcNAc(b1-2)Man
# In short: as §1
# [38] = molecular target: Neu5Ac(a2-3)Gal(b1-3)GlcNAc(b1-2)Man(a1-3)[GlcNAc(b1-4)][Neu5Ac(a2-3)Gal(b1-3)GlcNAc(b1-2)Man(a1-6)]Man(b1-4)GlcNAc(b1-4)GlcNAc
# In short: as §1
# [39] = molecular target: Neu5Ac(a2-3)Gal(b1-3)GlcNAc(b1-2)Man(a1-3)[Neu5Ac(a2-3)Gal(b1-3)GlcNAc(b1-2)Man(a1-6)]Man(b1-4)GlcNAc(b1-4)GlcNAc
# In short: as §1
# [40] = molecular target: Neu5Ac(a2-3)Gal(b1-3)GlcNAc(b1-3)Gal(b1-3)GlcNAc
# In short: as §1
# [41] = molecular target: Neu5Ac(a2-3)Gal(b1-3)GlcNAc(b1-3)Gal(b1-4)GlcNAc
# In short: as §1
# [42] = molecular target: Neu5Ac(a2-3)Gal(b1-3)GlcNAc(b1-3)GalNAc
# In short: as §1
# [43] = molecular target: Neu5Ac(a2-3)Gal(b1-3)GlcNAc(b1-4)Gal(b1-4)Glc
# In short: as §1
# [44] = molecular target: Neu5Ac(a2-3)Gal(b1-3)GlcNAc(b1-6)GalNAc
# In short: as §1
# [45] = molecular target: Neu5Ac(a2-3)Gal(b1-3)GlcNAc6S
# In short: as §1
binder,measurement,setting,value
"CBM13 2a (Mycobacterium tuberculosum), P64849 (protein) DGPVQLKSRLGDVCLDAPSGSWFSPLVINPCNGTDFQRWNLTDDRQVESVAFPGECVNIGNALWARLQPCVNWISQHWTVQPDGLVKSDLDACLTVLGGPDPGTWVSTRWCDPNAPDQQWDSVPLEHHHHHH",glycan array binding signal (z-score),[1],-0.084
same,glycan array binding signal (z-score),[2],-0.38
same,glycan array binding signal (z-score),[3],-0.354
same,glycan array binding signal (z-score),[4],-0.255
same,glycan array binding signal (z-score),[5],-0.288
same,glycan array binding signal (z-score),[6],-0.215
same,glycan array binding signal (z-score),[7],-0.287
same,glycan array binding signal (z-score),[8],-0.161
same,glycan array binding signal (z-score),[9],-0.282
same,glycan array binding signal (z-score),[10],-0.089
same,glycan array binding signal (z-score),[11],-0.022
same,glycan array binding signal (z-score),[12],-0.193
same,glycan array binding signal (z-score),[13],0.088
same,glycan array binding signal (z-score),[14],-0.191
same,glycan array binding signal (z-score),[15],-0.144
same,glycan array binding signal (z-score),[16],-0.338
same,glycan array binding signal (z-score),[17],2.04
same,glycan array binding signal (z-score),[18],-0.202
same,glycan array binding signal (z-score),[19],-0.405
same,glycan array binding signal (z-score),[20],-0.434
same,glycan array binding signal (z-score),[21],-0.189
same,glycan array binding signal (z-score),[22],6.51
same,glycan array binding signal (z-score),[23],-0.112
same,glycan array binding signal (z-score),[24],-0.145
same,glycan array binding signal (z-score),[25],0.415
same,glycan array binding signal (z-score),[26],-0.171
same,glycan array binding signal (z-score),[27],-0.141
same,glycan array binding signal (z-score),[28],-0.238
same,glycan array binding signal (z-score),[29],-0.304
same,glycan array binding signal (z-score),[30],-0.233
same,glycan array binding signal (z-score),[31],-0.15
same,glycan array binding signal (z-score),[32],0.272
same,glycan array binding signal (z-score),[33],-0.344
same,glycan array binding signal (z-score),[34],-0.119
same,glycan array binding signal (z-score),[35],-0.262
same,glycan array binding signal (z-score),[36],-0.077
same,glycan array binding signal (z-score),[37],-0.015
same,glycan array binding signal (z-score),[38],-0.103
same,glycan array binding signal (z-score),[39],-0.107
same,glycan array binding signal (z-score),[40],-0.075
same,glycan array binding signal (z-score),[41],-0.207
same,glycan array binding signal (z-score),[42],0.305
same,glycan array binding signal (z-score),[43],-0.032
same,glycan array binding signal (z-score),[44],-0.375
same,glycan array binding signal (z-score),[45],1.68

# Source: the supplement of paper PMC8728848
